# Over roughly 33,000 sequences, “E-score (-0.5 to 0.5)” has its median near -0.021; the highest 2% begin near 0.32. The list shows a part of the results.
# Biological target: T1, Zap1 (UniProt P47043)
# T1 sequence: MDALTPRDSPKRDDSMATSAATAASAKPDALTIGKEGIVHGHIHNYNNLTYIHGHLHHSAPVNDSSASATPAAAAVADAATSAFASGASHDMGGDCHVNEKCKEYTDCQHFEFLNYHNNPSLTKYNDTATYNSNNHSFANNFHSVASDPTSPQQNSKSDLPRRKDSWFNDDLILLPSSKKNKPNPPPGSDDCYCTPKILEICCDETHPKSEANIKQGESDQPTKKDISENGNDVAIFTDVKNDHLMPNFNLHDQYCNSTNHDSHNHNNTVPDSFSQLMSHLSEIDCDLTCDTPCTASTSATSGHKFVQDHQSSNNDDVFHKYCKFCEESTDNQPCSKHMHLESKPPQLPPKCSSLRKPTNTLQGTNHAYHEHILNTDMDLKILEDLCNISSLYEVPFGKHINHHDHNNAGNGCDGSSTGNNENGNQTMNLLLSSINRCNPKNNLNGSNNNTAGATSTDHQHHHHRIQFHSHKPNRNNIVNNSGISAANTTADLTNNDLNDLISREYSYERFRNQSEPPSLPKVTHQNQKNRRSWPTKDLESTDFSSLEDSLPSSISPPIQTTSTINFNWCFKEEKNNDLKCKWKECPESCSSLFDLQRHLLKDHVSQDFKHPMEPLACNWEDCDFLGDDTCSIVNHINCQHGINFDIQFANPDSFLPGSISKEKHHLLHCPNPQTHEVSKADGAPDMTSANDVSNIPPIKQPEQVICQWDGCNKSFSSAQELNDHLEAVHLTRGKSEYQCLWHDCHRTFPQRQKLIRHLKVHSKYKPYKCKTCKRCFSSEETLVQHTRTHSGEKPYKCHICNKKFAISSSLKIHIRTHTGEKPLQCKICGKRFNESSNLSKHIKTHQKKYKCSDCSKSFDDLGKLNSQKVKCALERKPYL
# Test: PBM E-score (8-mer binding enrichment) (E-score (-0.5 to 0.5)); higher = stronger / more preferred TF binding; most listed sequences are background and not binding sites
# Details: protein concentration: 200 nM; construct: GST-full length
# Method in brief: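 E-scores (a modified Wilcoxon-Mann-Whitney statistic) were assigned by the Universal PBM Analysis Suite to every ungapped eight-base word pooled with its reverse complement. The input came from universal all-10-mer Agilent arrays made double-stranded by primer extension and probed with GST-tagged yeast transcription factors at about 100-200 nM. Fluorescent anti-GST detected bound protein, and masliner normalised the scans.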
row,Sequence,PBM E-score
1,CGTCCTAG,-0.164
2,AAAGACTA,-0.0199
3,ATCTAATA,0.211
4,CAGCTATC,-0.201
5,CCCCATCA,0.0773
6,ACTAGACA,0.0153
7,CGTAGATC,-0.14
8,AGAGGATA,0.0711
9,AGTGGTAC,0.204
10,ATGATCCG,-0.0324
11,GTTCCGGA,-0.0987
12,ACGTTCCG,-0.304
13,CCTGCCAG,-0.0849
14,AAAACGAC,0.181
15,ATGCAGCG,-0.196
16,AGAATAGG,0.0937
17,GGCAGGCC,-0.345
18,CCCCCCGC,-0.286
19,GCTGTGCA,-0.0863
20,CAAAGGTG,0.0139
21,GGCCAGCA,-0.185
22,AATCCTAT,0.054
23,CCAGGTTC,-0.159
24,GGAGACAA,-0.08
25,CCATCAGC,0.0766

row,Sequence,PBM E-score
1,CCCAATCC,0.0373
2,CTTTCCTC,-0.0382
3,GCGACCCA,0.0978
4,TCGAGTAA,0.194
5,AGCTGTTG,-0.0641
6,ATGAGAAG,-0.0712
7,AGGCGCCT,-0.193
8,ACGCGAGC,-0.0881
9,GAGGTCCA,0.0152
10,CAAACTGG,-0.111
11,ACGGGGAT,-0.0753
12,CACCCTCG,0.234
13,AACGAATA,-0.00355
14,GCAGTAGC,-0.194
15,TTGGAAAA,0.109
16,AGGCAATA,-0.152
17,CTTGGGTC,0.00951
18,CGAGGCCG,-0.0899
19,AAGTCTGA,-0.154
20,CTAGGGAC,-0.0705
21,CAGCCATA,-0.198
22,GTGTCTCA,-0.115
23,CACAGAAC,-0.203
24,AATAATAT,0.144
25,CTTGTCAA,-0.0325

row,Sequence,PBM E-score
1,AGCCATTC,-0.0998
2,AGGAGAAG,-0.167
3,AGTACGAC,0.0168
4,GACATCTA,0.0356
5,CCACATGG,-0.0835
6,CACGTGTA,-0.0824
7,CGGCCCGA,-0.0313
8,CAACCCCC,-0.212
9,CAACACGA,0.0168
10,CGAATAAG,-0.0488
11,CAAGTCCA,-0.0774
12,AACGCAAG,-0.0202
13,GTATCGTA,0.0591
14,TCGACCGA,-0.19
15,ACCACGCC,-0.0298
16,GCCTACGA,-0.0547
17,AAGCAAGA,-0.153
18,ACCATTGA,0.117
19,CTTATAGA,0.0117
20,TAAGTCAA,-0.0991
21,GACAATCC,0.0476
22,ATGGTTTC,0.138
23,CAATTGGA,-0.1
24,ACCGGGCG,-0.121
25,AGTACTGA,-0.0168

row,Sequence,PBM E-score
1,ATGCTAGC,-0.159
2,AATCAGTC,-0.107
3,ACTATCAG,-0.067
4,CAGACCGC,0.14
5,CACATTCA,-0.104
6,AGATCTCG,-0.0873
7,CCAAAAAC,0.256
8,CGGTGGGA,-0.0865
9,CCCACAAC,0.233
10,ATAGGCCA,0.0751
11,CACTCGCA,-0.0876
12,AAAACTCT,-0.069
13,ATTCACTG,-0.136
14,AGCGTGCA,-0.151
15,CTAATGGC,0.134
16,CACCGGGG,-0.137
17,GATACTGC,-0.126
18,AGACGTCC,-0.0654
19,ATCTGAAA,0.00151
20,CCCTGTAG,0.14
21,CGCTCGAA,-0.152
22,ACAAACCG,0.027
23,GACAAGTA,-0.0947
24,AAACCACA,0.184
25,AGAGCTTC,-0.0654

row,Sequence,PBM E-score
1,AGGTCCTG,0.0385
2,ACGAAACG,-0.147
3,GGTGGATA,-0.0334
4,CACTCAAC,0.136
5,TAGATAAA,0.16
6,GACTAACC,0.14
7,GCTGCTTA,0.0693
8,ACATAGTG,-0.0367
9,CCAATTGG,0.21
10,CCGTTTTA,0.0249
11,CGTTTATA,0.0137
12,AGAAGATA,0.0269
13,CCATTAAA,0.157
14,CTCCGCAA,-0.098
15,CACTGGCC,-0.122
16,CCTCGAGG,0.331
17,CTTCCGGC,0.0477
18,CGATACTA,0.0625
19,AGCTTCGG,-0.19
20,ATGATTGC,0.0384
21,TGATGGCA,-0.242
22,CACTATCG,-0.187
23,CATCTGAG,0.0478
24,AGGGGTGC,-0.162
25,ACGCAGCA,-0.145

row,Sequence,PBM E-score
1,GATAAGCA,-0.0852
2,AGGCACAC,-0.173
3,ACGTGACC,0.249
4,GTGAGAGA,-0.135
5,GAATCGGC,-0.15
6,CACCCATA,0.034
7,GATGGACA,0.0797
8,CAAAGACC,0.268
9,CCAGGTTA,0.382
10,GTTCAAAA,0.0198
11,CTATGATC,-0.146
12,ACCCTGAG,0.378
13,GACGCACA,-0.0128
14,ATAACTAG,0.109
15,ACCGGCTC,-0.103
16,ACACCTCA,0.00676
17,ACTCTCGG,0.0208
18,TCCGAAAA,0.126
19,ATGATTCA,-0.0405
20,CCGTCATC,-0.199
21,GAGCTGCA,-0.252
22,AAGTTCGT,0.0319
23,AGATTAGA,-0.101
24,ATGACCTA,0.304
25,CGCGCCCC,-0.0464

row,Sequence,PBM E-score
1,ACTAATCT,-0.175
2,AGGCTGGA,-0.23
3,CATCCGCC,0.00204
4,ACACGATC,-0.0924
5,CTTTATAC,0.0485
6,ACAAGTAA,0.0362
7,CGCCAGAC,-0.0527
8,CAGACTCC,-0.35
9,GAATACCC,0.229
10,GCCGGAGA,-0.196
11,CTGCGCTA,-0.279
12,CCATGACG,0.0693
13,GCCTCCAA,-0.00173
14,AGACGAGC,-0.31
15,CCGCATCG,-0.129
16,TACGAGAA,0.0927
17,TCGCGAAA,0.0948
18,GCTTTTAA,-0.0452
19,TGAAATAA,0.0504
20,CTAAAATC,0.0541
21,AACAGGAG,-0.00778
22,CGCGTGAC,0.0439
